# Reference: PubChem BioAssay (NCATS)
# Inconclusive results, whose numbers are uncertain, are shown with a selection of clear calls. For some of these results: No potency is given beside an inconclusive call; the fits are too rough. Active and inactive are the calls of the source. Calls come from the whole dose curve; as a rule, active = well fitted curve in the direction sought with a large enough effect; inconclusive = small, poorly fitted or top-dose-only effect, or another doubt; inactive = no such curve, though single readings can be large; an effect the other way counts as inactive or inconclusive.
# Legend:
# [1] = target: Rap guanine nucleotide exchange factor 3 (Homo sapiens) (UniProt O95398); assay: Confirmatory qHTS for antagonist of cAMP-regulated guanine nucleotide exchange factor 3 (EPAC1) (AID 1645880); note: nearly all actives have a fitted effect of over 55% in size; note: potency is the fitted concentration of half-maximal effect
# Summary of the method: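 Nucleotide exchange uses 100 nM EPAC1, 250 nM RAP1B-BODIPY-GDP and 50 uM GDP, with compounds in a concentration-titration series. After 5 min at room temperature, fluorescence (480 nm ex/540 nm em) is read every 5 min for 30 min. Data are normalized to control ATA and DMSO.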
# [2] = target: Rap guanine nucleotide exchange factor 4 (Homo sapiens) (UniProt Q8WZA2); assay: Confirmatory qHTS for antagonist of cAMP-regulated guanine nucleotide exchange factor 4 (EPAC2) (AID 1645885); conditions: activity change, negative = inhibition: at 114 µM (top of the series) unless noted; note: nearly all actives have a fitted effect of over 25% in size; note: potency is the fitted concentration of half-maximal effect; for activity change, negative = inhibition: % is set by controls: 0 for no effect and ±100 for the full control effect
# [3] = target: Rap guanine nucleotide exchange factor 3 (Homo sapiens) (UniProt O95398); assay: Counterscreen qHTS for agonist of cAMP-regulated guanine nucleotide exchange factor 3 (EPAC1) (AID 1645889); conditions: EPAC1 Rap1B-BODIPY-GDP exchange, fluorescence; activation: at 154 µM (top of the series) unless noted; note: nearly all actives have a fitted effect of over 40% in size; note: potency is the fitted concentration of half-maximal effect; for activation: % of control where 0% means no effect
# Summary of the method: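 Rap1B-BODIPY-GDP 250 nM + GDP 50 uM; cpds 7-pt, final 9.74 nM–152 uM (activator mode) or from 7.32 nM upwards (inhibitor mode); RT; FI 480/540 nm at 5 and 30 min, then ± cAMP, reread.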
# [4] = target: Phosphoglycerate kinase, glycosomal (Trypanosoma brucei brucei) (UniProt P07378); assay: qHTS for inhibitors of Phosphogylcerate Kinase: Hit Validation Screen (AID 686980); conditions: TbPGK coupled GAPDH assay, Kinase-Glo luminescence; at 57.5 µM (top of the series); note: % is set by controls: 0 for no effect and ±100 for the full control effect; nearly all actives have a fitted effect of over 65% in size
# Summary of the method: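 Luminescent ATP detection (Kinase-Glo Plus) follows a 60-minute room-temperature incubation, with wells lacking PGK as controls. Buffer: 100 mM TEA (pH 7.6), 5 mM MgCl2, 0.01% Tween-20. Coupling enzyme GAPDH (100 nM final) supplies unstable 1,3-BPG in-well.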
# [5] = target: DNA polymerase kappa (Homo sapiens) (UniProt Q9UBT6); assay: qHTS for Inhibitors of Polymerase Kappa: Confirmatory Assay for Cherry-picked Compounds (AID 720501); conditions: purified Pol-kappa, fluorescent strand-displacement substrate; note: potency is the fitted concentration of half-maximal effect
# Summary of the method: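 Strand-displacement fluorescence read-out: TAMRA reporter released from a BHQ-2-quenched template, measured at 525/598 nm over a 10 min kinetic window. Substrate was 50 nM final; enzyme was 10 nM Pol-kappa, preincubated 15 min at room temperature with compound.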
# [6] = target: Rap guanine nucleotide exchange factor 4 (Homo sapiens) (UniProt Q8WZA2); assay: Confirmatory qHTS for agonist of cAMP-regulated guanine nucleotide exchange factor 4 (EPAC2) (AID 1645884);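 note: nucleotide exchange releases bodipy-GDP from Rap1 and this lowers its fluorescence; nearly all actives have a fitted effect of over 65% in size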; note: potency is the fitted concentration of half-maximal effect; for activation: % is set by controls: 0 for no effect and ±100 for the full control effect
# [7] = target: Vitamin D3 receptor (Homo sapiens) (UniProt P11473); assay: qHTS for Inhibitors of the vitamin D receptor (VDR): Hit Validation in Primary Screen (AID 602199); conditions: VDR-coactivator inhibition assay, qHTS confirmation; note: potency is the fitted concentration of half-maximal effect
# Summary of the method: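 With 800 nM VDR and 5 uM LG19078 agonist present, compounds were incubated 2 h at ambient temperature with Alexa 647-labelled SRC2-3. Displacement was read as polarization at 620/688 nm.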
# [8] = target: Vitamin D3 receptor (Homo sapiens) (UniProt P11473); assay: qHTS for Inhibitors of the vitamin D receptor (VDR): Hit Validation using a Fluorescein Assay (AID 602200); note: potency is the fitted concentration of half-maximal effect
# Summary of the method: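 Compounds added to VDR ligand-binding domain (1.5 uM) with agonist LG19078 (5 uM) and 5 nM SRC2-3 fluorescein peptide, final concentrations. After 2 h at ambient temperature, polarization of fluorescein emission (Ex 495 nm/Em 520 nm) measured.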
# [9] = qHTS for Inhibitors of the vitamin D receptor (VDR): Hit Validation using a Texas Red Assay (AID 602201); note: potency is the fitted concentration of half-maximal effect
# Summary of the method: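 After a 2-hour room-temperature incubation, polarization of Texas-Red emission was read (Ex 595 nm/Em 615 nm). Final mix contained 7 nM Texas Red, 1.5 uM VDR-LBD and LG19078.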
# [10] = target: Vitamin D3 receptor (Homo sapiens) (UniProt P11473); assay: qHTS for Inhibitors of the vitamin D receptor (VDR): Hit Validation using a Beta-Lactamase Assay (AID 602202); note: % is set by controls: 0 for no effect and ±100 for the full control effect
# Summary of the method: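 Beta-lactamase reporter read-out (447 nm emission of cleaved FRET substrate, 2 h) after 18 h compound exposure of HEK293 cells carrying a VDR-GAL4 fusion and UAS reporter, stimulated with LG190178.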
# [11] = qHTS for Inhibitors of the vitamin D receptor (VDR): Hit Validation using a Cytotoxicity Assay (AID 602204);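 note: plate controls were DMSO for no effect and high-concentration cycloheximide for full effect; nearly all actives have a fitted effect of over 75% in size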
# Summary of the method: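 Compounds were applied to 20,000 cells per well after a 4-hour attachment period and incubated 18 hours. Cellular ATP was then detected luminescently following a 30-minute reagent step.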
# [12] = target: Rap guanine nucleotide exchange factor 3 (Homo sapiens) (UniProt O95398); assay: Confirmatory qHTS for agonist of cAMP-regulated guanine nucleotide exchange factor 3 (EPAC1) (AID 1645881); conditions: EPAC1 Rap1B BODIPY-GDP exchange fluorescence; activation: at 154 µM (top of the series), 100% = cAMP control response; note: nearly all actives have a fitted effect of over 75% in size; note: potency is the fitted concentration of half-maximal effect;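 for activation: EPAC1 catalysed release of BODIPY-GDP from Rap1B seen as fluorescence loss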
# Tags give direction and shape of the fitted curve.
# Sequence of UniProt P11473 (P11473 whole entry, looked up, the tested form may be a part): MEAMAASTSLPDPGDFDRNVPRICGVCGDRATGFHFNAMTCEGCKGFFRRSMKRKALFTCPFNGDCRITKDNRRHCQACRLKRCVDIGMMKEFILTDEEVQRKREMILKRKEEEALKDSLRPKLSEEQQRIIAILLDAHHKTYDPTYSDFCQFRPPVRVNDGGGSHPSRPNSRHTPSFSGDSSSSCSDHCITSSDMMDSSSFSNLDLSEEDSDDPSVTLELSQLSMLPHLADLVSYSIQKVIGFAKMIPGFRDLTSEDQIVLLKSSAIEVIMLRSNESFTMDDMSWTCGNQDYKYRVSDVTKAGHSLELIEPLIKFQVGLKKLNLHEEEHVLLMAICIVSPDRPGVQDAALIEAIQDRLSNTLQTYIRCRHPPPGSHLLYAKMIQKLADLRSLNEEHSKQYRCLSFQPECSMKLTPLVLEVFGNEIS
# Sequence of UniProt Q8WZA2 (Q8WZA2 whole entry, looked up): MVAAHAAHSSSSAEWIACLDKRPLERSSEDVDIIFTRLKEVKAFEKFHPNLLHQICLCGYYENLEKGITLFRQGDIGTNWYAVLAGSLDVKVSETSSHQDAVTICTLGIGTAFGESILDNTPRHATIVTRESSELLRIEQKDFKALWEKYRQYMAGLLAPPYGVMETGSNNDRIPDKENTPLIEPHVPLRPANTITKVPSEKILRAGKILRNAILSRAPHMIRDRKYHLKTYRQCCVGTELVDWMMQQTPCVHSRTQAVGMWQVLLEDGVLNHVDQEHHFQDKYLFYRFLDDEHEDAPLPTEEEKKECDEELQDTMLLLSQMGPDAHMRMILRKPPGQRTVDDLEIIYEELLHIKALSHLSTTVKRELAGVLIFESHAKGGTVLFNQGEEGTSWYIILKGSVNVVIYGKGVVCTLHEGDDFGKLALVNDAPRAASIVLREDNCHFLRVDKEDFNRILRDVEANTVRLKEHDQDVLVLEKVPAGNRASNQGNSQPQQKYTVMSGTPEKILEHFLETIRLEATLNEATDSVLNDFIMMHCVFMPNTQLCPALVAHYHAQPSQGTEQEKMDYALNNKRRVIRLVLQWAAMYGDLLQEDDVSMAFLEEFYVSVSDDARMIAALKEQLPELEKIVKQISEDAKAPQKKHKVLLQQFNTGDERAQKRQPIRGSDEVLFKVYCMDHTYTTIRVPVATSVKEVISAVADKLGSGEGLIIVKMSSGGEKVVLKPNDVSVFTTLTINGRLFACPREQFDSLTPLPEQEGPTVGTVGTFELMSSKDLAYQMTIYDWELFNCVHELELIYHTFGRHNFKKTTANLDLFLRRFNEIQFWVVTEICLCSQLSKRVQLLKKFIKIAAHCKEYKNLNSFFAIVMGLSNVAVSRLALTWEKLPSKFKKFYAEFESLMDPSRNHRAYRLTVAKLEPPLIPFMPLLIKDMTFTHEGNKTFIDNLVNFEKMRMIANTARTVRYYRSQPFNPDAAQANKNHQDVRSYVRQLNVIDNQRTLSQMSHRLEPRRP
# Sequence of UniProt O95398 (O95398 whole entry, looked up): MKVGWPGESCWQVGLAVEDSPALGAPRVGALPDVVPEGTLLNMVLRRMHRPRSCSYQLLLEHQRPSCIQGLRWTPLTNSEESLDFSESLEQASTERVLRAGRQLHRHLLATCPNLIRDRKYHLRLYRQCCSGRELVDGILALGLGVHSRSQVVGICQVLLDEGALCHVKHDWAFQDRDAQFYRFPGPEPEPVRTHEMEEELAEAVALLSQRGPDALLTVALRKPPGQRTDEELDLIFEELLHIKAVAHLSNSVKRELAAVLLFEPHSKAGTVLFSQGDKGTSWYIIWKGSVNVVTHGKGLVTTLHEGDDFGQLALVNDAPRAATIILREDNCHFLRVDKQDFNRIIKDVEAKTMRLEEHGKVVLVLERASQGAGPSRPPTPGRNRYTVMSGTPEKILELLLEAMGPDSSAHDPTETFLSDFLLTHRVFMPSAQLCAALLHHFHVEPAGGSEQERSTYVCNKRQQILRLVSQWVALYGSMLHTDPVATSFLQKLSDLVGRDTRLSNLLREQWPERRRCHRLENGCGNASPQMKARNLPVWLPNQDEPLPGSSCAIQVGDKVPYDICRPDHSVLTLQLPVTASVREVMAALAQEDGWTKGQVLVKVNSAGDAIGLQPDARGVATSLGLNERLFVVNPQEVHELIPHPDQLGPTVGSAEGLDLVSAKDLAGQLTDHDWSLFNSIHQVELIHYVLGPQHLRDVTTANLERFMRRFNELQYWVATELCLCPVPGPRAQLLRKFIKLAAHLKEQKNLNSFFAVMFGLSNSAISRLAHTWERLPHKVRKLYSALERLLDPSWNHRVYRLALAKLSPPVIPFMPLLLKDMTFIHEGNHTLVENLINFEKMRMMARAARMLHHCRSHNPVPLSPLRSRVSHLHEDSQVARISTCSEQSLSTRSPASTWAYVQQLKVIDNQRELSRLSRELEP
# Sequence of UniProt Q9UBT6 (Q9UBT6 whole entry, looked up): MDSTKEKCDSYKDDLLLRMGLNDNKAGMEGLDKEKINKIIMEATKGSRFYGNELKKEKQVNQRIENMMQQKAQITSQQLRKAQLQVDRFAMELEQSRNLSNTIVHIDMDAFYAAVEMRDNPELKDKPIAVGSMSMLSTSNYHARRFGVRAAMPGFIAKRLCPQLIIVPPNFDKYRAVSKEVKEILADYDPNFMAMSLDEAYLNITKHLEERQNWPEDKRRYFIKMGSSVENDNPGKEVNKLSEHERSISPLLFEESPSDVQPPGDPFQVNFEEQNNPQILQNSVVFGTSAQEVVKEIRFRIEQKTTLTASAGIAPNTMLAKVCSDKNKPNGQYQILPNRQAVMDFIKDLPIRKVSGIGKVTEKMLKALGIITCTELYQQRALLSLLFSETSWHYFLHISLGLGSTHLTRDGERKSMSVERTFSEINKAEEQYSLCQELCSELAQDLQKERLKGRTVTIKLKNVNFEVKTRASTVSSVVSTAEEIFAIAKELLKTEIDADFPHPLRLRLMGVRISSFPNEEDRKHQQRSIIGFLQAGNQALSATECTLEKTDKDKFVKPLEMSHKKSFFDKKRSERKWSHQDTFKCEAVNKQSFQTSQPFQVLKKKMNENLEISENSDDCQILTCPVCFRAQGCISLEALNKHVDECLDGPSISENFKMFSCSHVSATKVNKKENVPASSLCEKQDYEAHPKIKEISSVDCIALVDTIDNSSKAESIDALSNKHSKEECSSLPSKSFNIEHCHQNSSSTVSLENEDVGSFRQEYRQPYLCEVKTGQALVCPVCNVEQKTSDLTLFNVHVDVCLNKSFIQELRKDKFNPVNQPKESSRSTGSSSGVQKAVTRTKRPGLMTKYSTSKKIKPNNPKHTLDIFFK
# Sequence of UniProt P07378 (P07378 whole entry, looked up): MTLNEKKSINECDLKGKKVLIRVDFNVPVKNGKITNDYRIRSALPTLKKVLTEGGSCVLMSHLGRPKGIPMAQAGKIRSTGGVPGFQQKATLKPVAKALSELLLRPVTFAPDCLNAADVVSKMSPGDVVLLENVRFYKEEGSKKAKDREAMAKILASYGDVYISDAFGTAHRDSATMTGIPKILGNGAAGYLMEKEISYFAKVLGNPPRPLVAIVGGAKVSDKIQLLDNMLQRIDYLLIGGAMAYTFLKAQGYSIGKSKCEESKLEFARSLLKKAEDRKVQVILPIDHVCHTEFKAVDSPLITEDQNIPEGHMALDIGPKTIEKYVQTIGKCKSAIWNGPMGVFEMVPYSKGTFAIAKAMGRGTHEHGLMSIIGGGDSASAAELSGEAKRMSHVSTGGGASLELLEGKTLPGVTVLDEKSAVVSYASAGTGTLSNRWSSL
smiles,measurement,setting,value
COc1cccc(C(c2nnnn2C2CCCCC2)N2CCC3(CC2)C(=O)NCN3c2ccccc2)c1OC (stereo not drawn),Potency,[1],"inconclusive [inhibitor, partial curve]"
same,Potency,[2],"inconclusive [inhibitor, partial curve, poor fit]"
same,Potency,[3],"inconclusive [activator, partial curve, poor fit]"
N#CC(C#N)=NNc1ccc(S(N)(=O)=O)cc1,"activity change, negative = inhibition",[4],inactive: -17.6%
same,Potency,[5],"inconclusive [inhibitor, partial curve]"
same,Potency,[1],active: 44.7 µM
same,activation,[6],"inactive: 3.48% [at 17.1 µM, percent relative to cAMP agonist control]"
same,Potency,[3],"inconclusive [activator, partial curve, poor fit]"
Cc1cccc(N2C(=O)NC(=O)/C(=C\c3cc(C)n(-c4sc5c(c4C#N)CCCC5)c3C)C2=O)c1C,Potency,[1],active: 30.1 µM
same,Potency,[2],"inconclusive [inhibitor, partial curve]"
same,Potency,[3],"inconclusive [activator, partial curve, poor fit]"
CCOC(=O)[C@]12Cc3cc(OC)ccc3[C@H]1N(Cc1ccccc1)C(=O)c1ccccc12,Potency,[1],"inconclusive [inhibitor, partial curve, poor fit]"
same,Potency,[2],active: 19 µM
same,Potency,[3],"inconclusive [activator, partial curve, poor fit]"
Cc1ccc(N2C(=O)NC(=O)/C(=C\c3cc(C)n(-c4sc5c(c4C#N)CCCC5)c3C)C2=O)cc1,Potency,[1],active: 16.9 µM
same,Potency,[2],inactive
same,Potency,[3],"inconclusive [activator, partial curve, poor fit]"
COc1cccc(C(c2nnnn2Cc2ccccc2)N2CCC(n3c(=O)[nH]c4ccccc43)CC2)c1OC (stereo not drawn),Potency,[1],"inconclusive [inhibitor, partial curve, poor fit]"
same,Potency,[2],"inconclusive [inhibitor, single point]"
Cc1cc(/C=C2/C(=O)NC(=O)N(Cc3ccco3)C2=O)c(C)n1-c1ccccc1O,Potency,[1],active: 44.7 µM
same,activation,[6],"inactive: 11.8% [at 17.1 µM, percent relative to cAMP agonist control]"
same,Potency,[2],active: 0.19 µM
NS(=O)(=O)c1ccc(-c2ccc(C=C3C(=O)NC(=O)NC3=O)o2)cc1,Potency,[7],"inconclusive [inhibitor, partial curve]"
same,Potency,[8],"inconclusive [inhibitor, full curve]"
same,Potency,[9],"inconclusive [inhibitor, single point]"
same,Potency,[10],inactive
same,Potency,[11],inactive
same,Potency,[1],"inconclusive [inhibitor, partial curve]"
same,Potency,[12],inactive
same,Potency,[3],inactive
CC(C)C/C(=N/O)c1cn(C)c2ccccc12,Potency,[1],inactive
same,Potency,[6],inactive
same,Potency,[2],"inconclusive [inhibitor, single point]"
Nc1ccc(Cl)cc1C(=O)c1ccccc1Cl,Potency,[1],"inconclusive [inhibitor, partial curve, poor fit]"
same,Potency,[12],"inconclusive [activator, partial curve, poor fit]"
same,Potency,[3],"inconclusive [activator, partial curve]"
Cc1ccc(CN2CCCN(Cc3ccccc3C)S2(=O)=O)cc1,Potency,[1],inactive
same,Potency,[2],inactive
CC(=O)C1C2c3ccccc3OC1(C)N=c1s/c(=C/c3cn(C)nc3C)c(=O)n12 (stereo not drawn),Potency,[1],"inconclusive [inhibitor, full curve, poor fit]"
same,Potency,[2],inactive
Cc1ccc(N)c(C(=O)c2ccc(Br)cc2)c1,Potency,[1],inactive
same,Potency,[6],"inconclusive [activator, partial curve, poor fit]"
same,Potency,[3],"inconclusive [activator, partial curve, poor fit]"
CCOC(=O)[C@]12Cc3ccsc3[C@H]1N(Cc1ccccc1)C(=O)c1ccccc12,Potency,[1],inactive
same,Potency,[2],"inconclusive [inhibitor, full curve]"
CCOC(=O)[C@]12Cc3cc(Cl)ccc3[C@H]1N(Cc1ccccc1)C(=O)c1ccccc12,Potency,[1],"inconclusive [inhibitor, full curve, poor fit]"
same,Potency,[6],inactive
same,Potency,[3],"inconclusive [activator, partial curve, poor fit]"
Cc1ccc(-n2c(O)c(C=NCc3ccco3)c(=O)[nH]c2=S)cc1C,Potency,[1],"inconclusive [inhibitor, single point]"
same,Potency,[6],inactive
same,activation,[3],inconclusive: 56.7% [activator]
Nc1c2c(nc3sc4c(c13)CCCC4)CCCC2,Potency,[1],"inconclusive [inhibitor, partial curve]"
same,"activity change, negative = inhibition",[2],inactive: -3.15% [at 12.7 µM]
CCCCn1c(NS(=O)(=O)c2ccc(C)cc2)c(C(=O)OCC)c2nc3ccccc3nc21,Potency,[1],active: 75.7 µM
same,Potency,[6],inactive
same,Potency,[3],"inconclusive [activator, partial curve, poor fit]"
O=[N+]([O-])c1ccc(N(CCO)CCO)c2c1no[n+]2[O-],Potency,[1],"inconclusive [inhibitor, full curve]"
same,Potency,[2],"inconclusive [inhibitor, single point]"
